Measurements taken from PubChem BioAssay AID504832 (National Center for Advancing Translational Sciences (NCATS), 2011).
Screen size: about 310,000 compounds; about 18,000 (5.8%) were called active. Inconclusive means that the source gave no clear call. Such entries were picked first, then a sample of the others. Calls follow the shape of the dose curve; as a rule, active = well fitted inhibition curve with a large enough effect; inconclusive = small, poorly fitted or top-dose-only effect, or another doubt; inactive = no such curve, though single readings can be large or run the other way. No potency is given beside an inconclusive call; the fits are too rough.

Test: Primary qHTS for delayed death inhibitors of the malarial parasite plastid, 48 hour incubation
Conditions: P. falciparum luciferase growth in erythrocytes; series mostly up to 28.7 µM; activity change, negative = inhibition: at the top concentration
Procedure, shortened: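 Firefly luciferase activity from engineered P. falciparum reports growth; inhibitors lower the luminescent signal. Cultures contained 2% hematocrit erythrocytes at 0.1% final parasitemia.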
% is scaled to controls: 0 for no effect and ±100 for the full control effect; potency is read from the fitted curve at half-maximal effect; tags tell the direction and shape of the fitted curve.

| SMILES | Potency | activity change, negative = inhibition |
| --- | --- | --- |
| COCCn1nnnc1C(c1ccccn1)N1CCN(c2cc(Cl)ccc2C)CC1 (stereo not given) | inconclusive [inhibitor, single point] | – |
| CCCS(=O)(=O)c1nc(S(=O)(=O)c2ccc(C)cc2)c(N2CC(C)OC(C)C2)s1 (stereo not given) | inconclusive [inhibitor, partial curve] | – |
| CN(CC(=O)NCCc1ccccc1)Cc1ccco1 | – | inactive: 87.4% |
| O=C(Nc1ccc(NC(=O)C2CCCCC2)nc1)c1ccco1 | – | inactive: -6.36% |
| NS(=O)(=O)c1ccc(CCNC(=O)/C=C/c2ccccc2[N+](=O)[O-])cc1 | – | inactive: -2.26% |
| N#CC1=C(N)NC(SCC(=O)c2ccc(Br)cc2)=C(C#N)C12CCCCC2 | inconclusive [inhibitor, single point] | – |
| CCC(=O)Nc1c(-c2ccc(C)cc2)nc2ccc(C)cn12 | inconclusive [inhibitor, full curve, poor fit] | – |
| CC(C)Oc1cc(C(=O)NC2CCCCC2)c2ccccc2n1 | inconclusive [inhibitor, partial curve, poor fit] | – |
| O=C(NCc1ccco1)C(=O)NCC1OCCN1S(=O)(=O)c1ccc(Br)cc1 (stereo not given) | inconclusive [inhibitor, partial curve, poor fit] | – |
| CC(C)C(=O)OCC(=O)[C@@]12OC(C3CCCCC3)O[C@@H]1CC1C3CCC4=CC(=O)C=C[C@]4(C)C3[C@@H](O)C[C@@]12C (stereo not given in full) | active: 0.675 µM | – |
| O=C(NC1c2ccccc2-c2ccccc21)N1CCCCC1 | – | inactive: -19.4% |
| O=C(O)CSc1ncnc2sc3c(c12)CCC3 | – | inactive: 35.2% |
| S=c1nc(NCc2cccc(Cl)c2)c2ccccc2[nH]1 | inconclusive [inhibitor, partial curve, poor fit] | – |
| O=C(CC1C(=O)NCCN1CC1CCCCC1)NCc1ccc(F)cc1F (stereo not given) | – | inactive: 65.6% |
| COc1ccc(-n2c(Cc3cccn3C)nnc2SCC(=O)NCc2ccco2)cc1 | inconclusive [inhibitor, partial curve] | – |
| COc1ccc(NC(=S)N(CCCN2CCOCC2)Cc2cn(C)c3ccccc23)cc1OC | inconclusive [inhibitor, single point] | – |
| CCCCCCCCCC[n+]1cccc(C(=O)N(CC)CC)c1 | active: 3.7 µM | – |
| COc1ccc(-c2ccc(C3C(C#N)=C(N)Oc4n[nH]c(C)c43)o2)cc1 (stereo not given) | – | inactive: 55.8% |
| N#CCCN(Cc1cccnc1)S(=O)(=O)c1ccc(S(=O)(=O)NC2CCCCC2)cc1 | inconclusive [inhibitor, partial curve] | – |
| O=S(=O)(c1ccc2ccccc2c1)N(CC(O)COCc1ccco1)c1ccccc1 (stereo not given) | – | inactive: -19.1% |
